The source gives no read counts; variants with many changes may rest on few reads.
B1: LINE1-mini (parent)
chain: GGCAGAGCUCAACACAGCGUGGCAAAGUGGCUGUGGCUAGACUGCC

Variants of: B1
Assay: self-cleavage, relative activity (ratio to wild type); higher = more cleavage; in vitro, sequencing; the parent is a self-cleaving ribozyme

Variant	self-cleavage
G2U C15U A24G C31U U43C	0.01
G2U C8A C37U A39U G44A	0.05
G2U C8U C13A	0.05
G2U G21U U32G	0.05
G2U C8U A14U A26G U28G G29C C46A	0.02
G2U C10U G30A C31A	0.02
G2U C8U U9C	0.07
G2U C8U U9A	0.16
G2U G17C G19A A39G	0.02
G2U C10U C23U A24U	0.03
G2U G5A U20A G29U	0.01
G2U C8A U32C	0.02
G2U C8A A14C U20G G22A A24U	0.13
G2U C13U C18G A25U U38C	0.02
G2U C3A U38G	0.02
G2U C3U A11G G17A A26G U32A	0.01
G2U C23A G30A C46U	0.11
G2U C10A G29C G40A	0.01
G2U C3G C8U A39U	0.24
G2U C31A C45U	0.09
G2U G7A C18A A41G	0.03
G2U G7A G27U G33U	0.04
G2U G5U G27A C37A G44C	0.03
G2U C15A C31U G36A	0.07

Variant	self-cleavage
G2U C10G A11U	0.02
G2U G17C C45G	0.04
G2U G17A A26U A41G C42U	0.03
G2U G21A C23A	0.06
G2U C10G C13A A14U A25C	0.01
G2U G7C A11U A14G G19A G22U C23U	0.01
G2U G17A G22C	0.06
G2U C8U G36A C42A	0.05
G2U G5U C31G U34G C45U	0
G2U C8G C13A G22A G30C	0.03
G2U C10U G22A G27A A41U	0.04
G2U C3A G5A U38A	0.16
G2U G5C A16C G27C G36C C46A	0
G2U C10A C23G	0.1
G2U G21C U32G C42A	0.02
G2U C13U G17A G27U C31U	0.01
G2U C3U C8G C15A C18G C23U C37A	0.12
G2U C10A G40A	0
G2U C13U G35U	0.11
G2U G7U A12C U20A G21U	0.02
G2U C8U C10U C37G G44A	0.03
G2U C13G C45G	0.01
G2U G17U G30C	0.06
G2U A39C G40U	0

Variant	self-cleavage
G2U G5A C10A A11C C18U	0.02
G2U C8U U32A U34C G40U	0.03
G2U C8U A14U G22U	0.04
G2U C10U A26G G40C	0
G2U C8G G22U	0.02
G2U C42A U43C	0.42
G2U G19U G22U C31U G40U A41U C45U	0.01
G2U A26U U28A	0
G2U G19A A41U	0.03
G2U C10A U28G G30A U34C	0.01
G2U C18U G21C U38A G44U	0.05
G2U C3U G22U G35A	0.15
G2U C10U A24G U32C	0.02
G2U C10A G44C	0.07
G2U C15A A16U U28G C45U	0.01
G2U G19A G22U	0.03
G2U G5U G22C G27U U34A	0.02
G2U G17U C31A A39G G40C	0.02
G2U C8G A11G	0
G2U C3A A39C	0.23
G2U C10G A11G G17C G33U U34C	0.01
G2U C42U C46A	0.08
G2U C23U G30U A39G	0.08
G2U G19U G27C	0.07

Variant	self-cleavage
G2U C15U U32G G40U	0.03
G2U C8A C42G	0.05
G2U C3G C13G G17U	0.05
G2U C8G G30U C31A	0.03
G2U G7A C23U U32C G33A	0.01
G2U C15U A25C G40U G44U	0.31
G2U C10A A41U	0
G2U G17U U20A	0.01
G2U G5A C18U C23A A24C A39G	0.02
G2U C15U U34G	0.05
G2U G5A C23A G30C G33C	0.04
G2U G7C U38C	0.07
G2U C13A C45A	0.09
G2U G5C A12G A24G	0.02
G2U C10U C15U G17C G44A C45U C46G	0.01
G2U C10U A14C A26C G27A	0.01
G2U G17C U20A U43C	0
G2U G5C U9A G19C U43A	0.01
G2U G19C A24U	0.16
G2U G19A U34A	0.01
G2U G5U C23G U38G A41G	0.07
G2U C18A G21C C23U	0.07
G2U G17C C23A	0.01
G2U G5C A24C U34A A39G	0.02

Variant	self-cleavage
G2U C8G U9G G29A G30U G35U U38C	0.01
G2U C8G G21U G22C C46U	0.03
G2U C8G U28C	0.01
G2U G22A G33C	0.06
G2U G5C C23U	0.02
G2U C10U A12G C18G A41G	0
G2U C18A U43C	0.02
G2U G7A C8U A25C G29C U34C G36A	0.05
G2U G19C C23A C31A C37U	0.05
G2U G21C G40A	0.04
G2U C8A G22U C42G	0.02
G2U C10A A11C G33C	0
G2U C10A C18A G21C G27C	0.01
G2U C10A G30A U38A	0.02
G2U C3U A14C C46A	0.05
G2U G17A C23G	0.03
G2U G17U G29U C45U	0
G2U C8G G27C G30U G36C	0.01
G2U C8A C10U	0.02
G2U C8U C10G G35U C37A	0.01
G2U C3A C8G C13A A14C A16U G21A G22U	0.05
G2U C31G U32C	0.03
G2U C3A A6U A11G	0
G2U C8G G17C C46A	0.03

Variant	self-cleavage
G2U C3G C31A U34A G35C	0.02
G2U G7C U20G G33U A41C	0.04
G2U C3A C8G C13U A14C C45G	0.01
G2U C10A A12U C15U	0.02
G2U G17U A25U	0.07
G2U C23G G35U	0.03
G2U C13U U28A G36A C37A	0.1
G2U C8A A14U C31U	0.05
G2U C3A G30U G35A	0.07
G2U G5U U28A	0.04
G2U G5U U28C	0.02
G2U C15G C18U G22U	0.05
G2U A39U C45U	0.02
G2U C13U A14C A25C U32C U38C	0.26
G2U C10A A12C	0.02
G2U C10U G33U G35C	0.03
G2U A26U U34G C42U	0
G2U C3U G5A	0.02
G2U C3U U20G G33U A41U	0.03
G2U C3U A12C A14G G29A	0.01
G2U G5A C31A C42U	0.03
G2U C8A C10A G21C A41G G44C	0.01
G2U C15G A16G C31U A41U	0
G2U G7U A14C G21U G22A G27U G35A	0.04

Variant	self-cleavage
G2U C10A G29U U32A G33C	0
G2U C8G A12G C18A A24C G33A U34C G35U	0
G2U C10A C18A C23U G36A	0.01
G2U C31A G35A G36U	0.04
G2U G5A G21C C42G C45U	0.03
G2U C8A A12C G27A U32A G36C	0.01
G2U G7C G22A C31U	0.03
G2U C10G C37G	0.03
G2U G5A G27U G35U	0.04
G2U C15A G30A A39C	0.02
G2U C3A A16C U20A G22C	0.1
G2U G19U U20A U34A G40U	0.06
G2U C18G G27U	0.03
G2U C3U G7U	0.06
G2U G17C C18U	0
G2U C8U C15A C31G G40U	0.01
G2U C18U G30A	0.59
G2U C3G A41G	0.02
G2U C15U U28A	0.02
G2U C10A A24C G30C U32A	0.01
G2U C13U G22U C23U G36U	0.1
G2U C13U A26C G30U C46A	0.04
G2U C3U G5U C18G	0.05

Source: the RNAGym collection of RNA variant scans (doi:10.7554/elife.90254)
